# The other results are listed elsewhere or left out.
# B1: PX14367B-bvu-516-23-516 (Bacteroides vulgatus) (protein)
# chain: LDTIPTTYVDAGSVFGKTGDAEKVLNGGWNYLMETFNSYANPGYGAMLRANDAMGSDVVLNSKYGFRTHNEFSAIYGKGGTNTLSWLLAYRVINDCNGVLDNIDAAEGTQADRNRIKGQALALRGFLYLHLASCYSFAIDKDPDAVCAPIYTQSTDETIAAEGKPASSVSEVYAQSINDLEEALELIPETYVRDAKHKIDNEVVLGILSRACLYARQWEKAKTYSDKLLAKDNYLMTESEYKAGFNSVDNKEWIWGHAQTNDQSNASYQFHYLDTTTKGSYYYSFNVDPYFRDLFEDGDYRKEMLFWATDPGADVESAAYVWMRNSKFRFRDIENQLGDIVLMRVAEIYLINAEAKAHLNDPDAINKLNDLKTARGAKTIHTNLSQQDLLETIWLERRKELWGEGFSLIDIIRNQQTVVRNAYPEGPIDYIYTDENGQTHTLKKKTQGHRFFNFPDKSAFCPNSKYYLYRITDSEELANKNLYKDHPKLSIYTK
# How the values were obtained:
# Assay in all cases: glycan array binding signal (z-score within array); higher = stronger binding
# Details in all cases: glycan notation: IUPAC condensed, linker removed
# Neu5Ac(a2-8)Neu5Ac = biological target: Neu5Ac(a2-8)Neu5Ac
# How it was run: (§1)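 The Consortium for Functional Glycomics database supplied 3228 glycan arrays, of which those lacking an available protein sequence were dropped. The binding signal, a within-array Z-score, was averaged across arrays of the same protein sequence and across linkers. Negative scores can be read as non-binding.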
# [1] = biological target: Neu5Ac(a2-8)Neu5Ac(a2-3)Gal(b1-3)GalNAc(b1-4)[Neu5Ac(a2-3)]Gal(b1-4)Glc
# How it was run: as §1
# [2] = biological target: Neu5Ac(a2-8)Neu5Ac(a2-3)Gal(b1-3)GalNAc(b1-4)[Neu5Ac(a2-8)Neu5Ac(a2-3)]Gal(b1-4)Glc
# How it was run: as §1
# [3] = biological target: Neu5Ac(a2-8)Neu5Ac(a2-3)Gal(b1-4)Glc
# How it was run: as §1
# [4] = biological target: Neu5Ac(a2-8)Neu5Ac(a2-3)Gal(b1-4)GlcNAc
# How it was run: as §1
# [5] = biological target: Neu5Ac(a2-8)Neu5Ac(a2-3)[Gal(b1-3)GalNAc(b1-4)]Gal(b1-4)Glc
# How it was run: as §1
# [6] = biological target: Neu5Ac(a2-8)Neu5Ac(a2-3)[GalNAc(b1-4)]Gal(b1-4)Glc
# How it was run: as §1
# [7] = biological target: Neu5Ac(a2-8)Neu5Ac(a2-8)Neu5Ac
# How it was run: as §1
# [8] = biological target: Neu5Ac(a2-8)Neu5Ac(a2-8)Neu5Ac(a2-3)Gal(b1-4)Glc
# How it was run: as §1
# [9] = biological target: Neu5Ac(a2-8)Neu5Ac(a2-8)Neu5Ac(a2-3)[Gal(b1-3)GalNAc(b1-4)]Gal(b1-4)Glc
# How it was run: as §1
# [10] = biological target: Neu5Ac(a2-8)Neu5Ac(a2-8)Neu5Ac(a2-3)[GalNAc(b1-4)]Gal(b1-4)Glc
# How it was run: as §1
# [11] = biological target: Neu5Ac(a2-8)Neu5Ac(a2-8)Neu5Ac(a2-8)Neu5Ac(a2-3)[GalNAc(b1-4)]Gal(b1-4)Glc
# How it was run: as §1
# [12] = biological target: Neu5Ac(a2-8)Neu5Gc(a2-3)Gal(b1-4)GlcNAc
# How it was run: as §1
# [13] = biological target: Neu5Ac(b2-6)Gal(b1-4)GlcNAc
# How it was run: as §1
# Neu5Ac(b2-6)GalNAc = biological target: Neu5Ac(b2-6)GalNAc
# How it was run: as §1
# [14] = biological target: Neu5Ac9Ac(a2-3)Gal(b1-3)GlcNAc
# How it was run: as §1
# [15] = biological target: Neu5Ac9Ac(a2-3)Gal(b1-4)GlcNAc
# How it was run: as §1
# [16] = biological target: Neu5Ac9Ac(a2-6)Gal(b1-4)GlcNAc
# How it was run: as §1
# [17] = biological target: Neu5Gc(a2-3)Gal(b1-3)GlcNAc
# How it was run: as §1
# [18] = biological target: Neu5Gc(a2-3)Gal(b1-3)[Fuc(a1-4)]GlcNAc
# How it was run: as §1
# Neu5Gc(a2-3)Gal(b1-4)Glc = biological target: Neu5Gc(a2-3)Gal(b1-4)Glc
# How it was run: as §1
# [19] = biological target: Neu5Gc(a2-3)Gal(b1-4)GlcNAc
# How it was run: as §1
# [20] = biological target: Neu5Gc(a2-3)Gal(b1-4)GlcNAc(b1-3)Gal(b1-4)GlcNAc(b1-2)Man(a1-3)[Neu5Gc(a2-3)Gal(b1-4)GlcNAc(b1-3)Gal(b1-4)GlcNAc(b1-2)Man(a1-6)]Man(b1-4)GlcNAc(b1-4)GlcNAc
# How it was run: as §1
# [21] = biological target: Neu5Gc(a2-3)Gal(b1-4)[Fuc(a1-3)]GlcNAc
# How it was run: as §1
# [22] = biological target: Neu5Gc(a2-6)Gal(b1-4)GlcNAc
# How it was run: as §1
# Neu5Gc(a2-6)GalNAc = biological target: Neu5Gc(a2-6)GalNAc
# How it was run: as §1
# [23] = biological target: Neu5Gc(a2-8)Neu5Ac(a2-3)Gal(b1-4)GlcNAc
# How it was run: as §1
# [24] = biological target: Neu5Gc(a2-8)Neu5Gc(a2-3)Gal(b1-4)GlcNAc
# How it was run: as §1
# [25] = biological target: Neu5Gc(a2-8)Neu5Gc(a2-3)Gal(b1-4)GlcNAc(b1-3)Gal(b1-4)GlcNAc
# How it was run: as §1
# [26] = biological target: Neu5Gc(a2-8)Neu5Gc(a2-6)Gal(b1-4)GlcNAc
# How it was run: as §1
# [27] = biological target: Neu5Gc(b2-6)Gal(b1-4)GlcNAc
# How it was run: as §1
binder,measurement,setting,value
B1,glycan array binding signal (z-score),Neu5Ac(a2-8)Neu5Ac,-0.346
same,glycan array binding signal (z-score),[1],-0.208
same,glycan array binding signal (z-score),[2],-0.393
same,glycan array binding signal (z-score),[3],-0.365
same,glycan array binding signal (z-score),[4],-0.353
same,glycan array binding signal (z-score),[5],-0.337
same,glycan array binding signal (z-score),[6],0.572
same,glycan array binding signal (z-score),[7],-0.342
same,glycan array binding signal (z-score),[8],-0.319
same,glycan array binding signal (z-score),[9],-0.208
same,glycan array binding signal (z-score),[10],1.71
same,glycan array binding signal (z-score),[11],0.233
same,glycan array binding signal (z-score),[12],2.09
same,glycan array binding signal (z-score),[13],-0.278
same,glycan array binding signal (z-score),Neu5Ac(b2-6)GalNAc,-0.322
same,glycan array binding signal (z-score),[14],-0.261
same,glycan array binding signal (z-score),[15],-0.352
same,glycan array binding signal (z-score),[16],-0.359
same,glycan array binding signal (z-score),[17],-0.306
same,glycan array binding signal (z-score),[18],-0.333
same,glycan array binding signal (z-score),Neu5Gc(a2-3)Gal(b1-4)Glc,-0.273
same,glycan array binding signal (z-score),[19],-0.211
same,glycan array binding signal (z-score),[20],-0.208
same,glycan array binding signal (z-score),[21],-0.344
same,glycan array binding signal (z-score),[22],-0.141
same,glycan array binding signal (z-score),Neu5Gc(a2-6)GalNAc,-0.272
same,glycan array binding signal (z-score),[23],-0.243
same,glycan array binding signal (z-score),[24],-0.3
same,glycan array binding signal (z-score),[25],-0.207
same,glycan array binding signal (z-score),[26],-0.3
same,glycan array binding signal (z-score),[27],0.617
